# Measurements published in PubChem BioAssay AID1159580 (chemical genetic matrix, 2015).
# The whole screen tested about 5,500 compounds, of which about 2,000 (36%) were called active. No stated cut-off is given here; in the data, active means normalized growth mostly below about 0.91 (no sharp cut-off); inconclusive means no clear call, values can overlap the other calls; inactive means mostly above about 0.92. The inconclusive results got no clear call from the source. Where a structure was tested more than once in an assay, its records may differ in their call.
# Assay: chemical genetic growth profiling, strain panel (AID 1159580);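 further: tested at 20 µM; growth read once vehicle control cultures reached saturation at 30 °C; 1 = growth at the plate median or of vehicle wells; lower values mean less growth of the strain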
# Conditions: S. cerevisiae deletion strains, growth OD
# [1] = locus YDR150W, strain NUM1, hits give low values
# [2] = locus YCL061C, strain MRC1 (second series), hits give low values
# [3] = locus YMR263W, strain SAP30, hits give low values
# [4] = locus YKL067W, strain YNK1, hits give low values
# [5] = locus YGR252W, strain gcn5, hits give low values
smiles,measurement,setting,value
CC(C)(O)C1C2OC(=O)C1C1(O)CC3OC34C(=O)OC2C14C (stereo not drawn) (tested in a mixture with another compound),normalized growth,"locus YER002W, strain NOP16, hits give low values",inconclusive: 0.79 [sensitive]
CC1Cc2cc3c(cc2C(c2ccc(N)cc2)=NN1)OCO3 (stereo not drawn),normalized growth,"locus YOR083W, strain WHI5 (second series), hits give low values",inconclusive: 0.826 [sensitive]
CCOC(=O)c1csc(N/N=C2/CCCc3ccccc32)n1,normalized growth,"locus YAL013W, strain DEP1, hits give low values",inconclusive: 0.93 [sensitive]
CCCc1nc(-c2ccccn2)[nH]c(=O)c1CC1CC1,normalized growth,[1],inconclusive: 0.778 [sensitive]
O=C(O)c1nc2cc(Cl)c(Cl)cc2[nH]c1=O,normalized growth,"locus YIL125W, strain kgd1, hits give low values",inconclusive: 0.916 [sensitive]
Oc1c(Br)cc(Br)cc1/C=N\n1cnnc1,normalized growth,"locus YJL128C, strain PBS2, hits give low values",inconclusive: 0.683 [sensitive]
NCCc1cnc[nH]1,normalized growth,[2],inconclusive: 0.866 [sensitive]
same,normalized growth,"locus YNL224C, strain SQS1, hits give low values",inconclusive: 0.529 [sensitive]
same,normalized growth,"locus YPL256C, strain CLN2, hits give low values",inconclusive: 0.566 [sensitive]
Cc1nn(-c2ccccc2)nc1C(=O)NNC(=S)Nc1ccc(Cl)cc1,normalized growth,"locus YDL101C, strain DUN1, hits give low values",inconclusive: 1.24 [resistant]
same,normalized growth,[1],inconclusive: 1.27 [resistant]
same,normalized growth,"locus YMR219W, strain ESC1, hits give low values",inconclusive: 1.1 [resistant]
CN1CCN(C2Cc3ccccc3Sc3ccc(Cl)cc32)CC1 (stereo not drawn),normalized growth,[2],inconclusive: 0.803 [sensitive]
CC1=CC(=O)C(C(C)C)=CC1=O,normalized growth,"locus YDR334W, strain swr1, hits give low values",inconclusive: 0.89 [sensitive]
same,normalized growth,"locus YEL061C, strain CIN8, hits give low values",inconclusive: 0.921 [sensitive]
O=C(O)c1ccc(N=Cc2ccc3c(c2)OCO3)cc1,normalized growth,[3],inconclusive: 0.891 [sensitive]
CN=C1CN(O)C(c2ccccc2)=c2cc(Cl)ccc2=N1,normalized growth,"locus YMR223W, strain ubp8, hits give low values",inconclusive: 0.901 [sensitive]
Cc1oc(C(C)(C)C)cc1-c1cc(N)n(-c2ccc(I)cc2)n1,normalized growth,[4],inconclusive: 1.18 [resistant]
Oc1c(Cl)cc(Cl)c(Cl)c1Cc1c(O)c(Cl)cc(Cl)c1Cl,normalized growth,"locus YOL012C, strain htz1",inconclusive: 0.198 [sensitive]
Cc1c(N(C)C)c(=O)n(-c2ccccc2)n1C,normalized growth,"locus YJL164C, strain tpk1, hits give low values",inconclusive: 0.787 [sensitive]
C=C(C)[C@@H]1CC[C@]2(CO)CC[C@]3(C)[C@H](CCC4[C@@]5(C)CC[C@H](O)C(C)(C)C5CC[C@]43C)C12 (stereo partly drawn),normalized growth,"locus YKL085W, strain MDH1 (second series), hits give low values",inconclusive: 1.14 [resistant]
same,normalized growth,"locus YKL085W, strain MDH1, hits give low values",inconclusive: 1.14 [resistant]
Cc1ccc(COc2ccc(C)nc2[N+](=O)[O-])cc1,normalized growth,[3],inconclusive: 0.874 [sensitive]
C[C@]12CCC3C(CC[C@H]4C[C@@H](O)CC[C@]34C)C1CCC2=O (stereo partly drawn),normalized growth,[5],inconclusive: 0.72 [sensitive]
O=C1c2ccccc2C(=O)C1(c1ccccc1)[N+](=O)[O-],normalized growth,[1],inconclusive: 0.776 [sensitive]
C(=C\c1ccccc1)/CN1CCN(C(c2ccccc2)c2ccccc2)CC1,normalized growth,"locus YNL175C, strain NOP13, hits give low values",inconclusive: 1.12 [resistant]
C=CC(C1=CC(=O)C(OC)=CC1=O)c1ccc(OC)cc1 (stereo not drawn),normalized growth,"locus YMR231W, strain pep5, hits give low values",inconclusive: 0.925 [sensitive]
CC(C)(O)C#Cc1ccc(/C=N\Nc2ccccc2)cc1,normalized growth,"locus YJL157C, strain FAR1, hits give low values",inconclusive: 0.662 [sensitive]
same,normalized growth,[4],inconclusive: 0.659 [sensitive]
same,normalized growth,"locus YLR403W, strain SFP1, hits give low values",inconclusive: 0.662 [sensitive]
CC[C@@]1(O)C[C@H](O)c2c(cc3c(c2O)C(=O)c2c(O)ccc(O)c2C3=O)[C@H]1C(=O)OC,normalized growth,"locus YKL068W, hits give low values",inconclusive: 0.933 [sensitive]
COc1ccc(OC)c(C(O)CNC(=O)CN)c1 (stereo not drawn),normalized growth,"locus YHR200W, strain rpn10, hits give low values",inconclusive: 0.911 [sensitive]
O=C(CCc1ccc(O)cc1)c1c(O)cc(O)cc1O,normalized growth,[5],inconclusive: 1.24 [resistant]
